# Laboratory results from publication PMC4336329 (PLoS ONE, 2015).
# Among all 310,000 compounds or so, about 2,200 (0.71%) showed an effect of 50% or more. Effects have a minus sign here. Some of the results follow.
# Molecular target: human ether-à-go-go-related gene (hERG) potassium channel (human, UniProt Q12809)
# Assay: primary screen, population patch clamp on CHO cells stably expressing hERG
# Chain of human ether-à-go-go-related gene (hERG) potassium channel (Q12809 whole entry, looked up): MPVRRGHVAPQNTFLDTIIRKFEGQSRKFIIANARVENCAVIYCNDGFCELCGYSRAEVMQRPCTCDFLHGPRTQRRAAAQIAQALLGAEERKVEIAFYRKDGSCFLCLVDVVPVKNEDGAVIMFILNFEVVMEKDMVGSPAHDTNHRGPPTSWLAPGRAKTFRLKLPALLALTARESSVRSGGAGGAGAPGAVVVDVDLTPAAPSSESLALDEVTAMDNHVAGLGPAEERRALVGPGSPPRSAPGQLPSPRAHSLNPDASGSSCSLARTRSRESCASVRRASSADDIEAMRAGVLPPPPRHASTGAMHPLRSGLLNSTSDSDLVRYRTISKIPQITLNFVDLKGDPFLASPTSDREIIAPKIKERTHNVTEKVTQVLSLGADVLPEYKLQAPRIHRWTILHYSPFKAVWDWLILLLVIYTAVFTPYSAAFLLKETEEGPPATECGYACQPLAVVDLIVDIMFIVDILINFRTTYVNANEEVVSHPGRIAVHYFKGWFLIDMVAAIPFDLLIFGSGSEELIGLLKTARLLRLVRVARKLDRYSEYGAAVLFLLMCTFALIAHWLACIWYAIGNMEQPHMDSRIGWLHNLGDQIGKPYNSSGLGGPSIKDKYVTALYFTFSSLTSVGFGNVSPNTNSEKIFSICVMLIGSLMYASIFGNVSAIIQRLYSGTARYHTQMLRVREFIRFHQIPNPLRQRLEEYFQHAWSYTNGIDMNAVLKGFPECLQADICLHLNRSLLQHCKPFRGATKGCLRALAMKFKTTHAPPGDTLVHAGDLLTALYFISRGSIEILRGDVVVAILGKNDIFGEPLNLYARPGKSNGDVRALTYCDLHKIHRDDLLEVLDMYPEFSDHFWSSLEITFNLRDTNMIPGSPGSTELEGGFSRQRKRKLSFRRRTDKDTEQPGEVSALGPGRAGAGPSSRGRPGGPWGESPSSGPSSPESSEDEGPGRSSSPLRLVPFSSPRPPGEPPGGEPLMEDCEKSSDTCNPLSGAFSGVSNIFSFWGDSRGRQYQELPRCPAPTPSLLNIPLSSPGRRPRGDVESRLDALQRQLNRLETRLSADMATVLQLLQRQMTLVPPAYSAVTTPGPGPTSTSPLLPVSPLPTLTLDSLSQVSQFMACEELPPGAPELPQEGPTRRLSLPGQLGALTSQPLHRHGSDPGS
row,Compound,"hERG current change (%, negative = inhibition) at 1uM [%]"
1,CC1CCc2cc(F)ccc2N1S(=O)(=O)c1ccc(F)cc1 (stereo not drawn),12.4
2,O=C(CN1CCC(n2nnc3cc(F)ccc32)CC1)NC1CCCCC1,-4.68
3,Cc1ccc(Nc2nc(-c3ccc(F)cc3)cs2)nc1,13.4
4,C/C(=N/NC(=O)CNC(=O)c1ccco1)c1ccco1,8.94
5,Nc1nccnc1C(=O)OCC(=O)Nc1ccc2[nH]c(=O)[nH]c2c1,8.54
6,COCC(=O)NC1CCN(S(=O)(=O)c2ccc(C(=O)O)cc2)CC1,17.4
7,CC(=O)Nc1ccc(NC(=O)C2CCCN2C(=O)Nc2ccccc2[N+](=O)[O-])cc1 (stereo not drawn),8.66
8,COc1ccc(OCC(O)CNC(=O)c2ccccc2)cc1 (stereo not drawn),10.3
9,C=CCC1CCCC(=O)N2CC[C@H](O)C12 (stereo partly drawn),10.6
10,Cc1cc(C(=O)OCC(=O)Nc2cccc(S(=O)(=O)N(C)C)c2)c(C)o1,11.9
11,Nc1cccnc1Oc1ccccc1F,10.6
12,CCOC(=O)c1cnc(N2CCN(C(=O)OCC)CC2)[nH]c1=O,13.9
13,CCSC1=NC(C)(C)C=C(C)N1,3.22
14,COCCN(CCOC)C(=S)Nc1ccccc1Cl,7.43
15,CC(=O)Nc1sc2c(c1C(N)=O)CCC2,12.8
16,O=C(C1CCN(C2CC(=O)N(Cc3ccccc3)C2=O)CC1)N1CCCCCC1 (stereo not drawn),-6.73
17,O=C(NCc1ccccc1Cl)C1CCCN(S(=O)(=O)c2cccc3nonc23)C1 (stereo not drawn),14.6
18,CC(=O)Nc1ccc(NC(=O)CSC2=NS(=O)(=O)c3cc(F)ccc3N2)cc1,14.7
19,COc1ccc(S(=O)(=O)N2CCOCC2)cc1NC(=O)CSc1nnc(C2CC2)n1C1CC1,5.21
20,NC(=O)C1CCN(C(=O)c2ccc3c(=O)n(Cc4ccco4)c(SCC(=O)c4ccccc4)nc3c2)CC1,-1.31
21,CCCCn1c(SCC(=O)NC2CCCC2)nnc1-c1ccco1,-1.09
22,COC(=O)Cc1c(C)c2ccc(OCC(=O)N(C)C)cc2oc1=O,6.75
23,CCCCOc1ccccc1C1CC(=O)NC2=C1C(=O)CCC2 (stereo not drawn),-0.56

row,Compound,"hERG current change (%, negative = inhibition) at 1uM [%]"
1,CCOC(=O)c1c(C)n(CC)c2c1cc(O)c1ccccc12,5.15
2,CCN(Cc1ccccc1)C(=O)COC(=O)CNS(=O)(=O)c1ccc(C)cc1,8.41
3,Cc1cccc(N2C(=O)C(Cl)=C(N3CCOCC3)C2=O)c1,15.4
4,COc1nc(OC)nc(N2CCC(C(=O)NCc3ccco3)CC2)n1,-0.721
5,Cc1ccccc1-n1c(SCC(=O)N/N=C/c2c(C)nn(-c3ccccc3)c2C)nc2ccccc2c1=O,2.3
6,CCOC(=O)N1C(=O)[C@](c2ccc(Cl)cc2)(C(C)C)N1C(=O)OCC,7.37
7,O=C(CN(C(=O)c1ccco1)c1cccc(F)c1)NCc1ccc(F)cc1,8.77
8,COc1ccc2nc(SCC(=O)Nc3nonc3C)[nH]c2c1,12.1
9,CCOC(=O)c1[nH]c2ccc(F)cc2c1NC(=O)Nc1ccccc1OC,9.61
10,CCOc1cc2c(cc1OCC)-n1cccc1C(c1ccccc1O)NC2.Cl (stereo not drawn),10.2
11,O=C(Nc1ccccc1N1CCOCC1)c1ccc2c(c1)C(=O)N(Cc1ccncc1)C2=O,-23.8
12,CCOC(=O)c1ccc(N2C(=O)C(C)=C(C)C2=O)cc1,13.2
13,CCC(=O)N1CCc2cc(Br)cc(S(=O)(=O)N3CCC(C(=O)NC(C)(C)C)CC3)c21,-1.52
14,Cc1ccc(OCC(=O)N2CCc3ccccc32)c([N+](=O)[O-])n1,2.49
15,Cc1ccc(NC(=O)CN2CC(C)SC2=NC2CCCCC2)cc1.Cl (stereo not drawn),1.84
16,Fc1ccccc1N1CCN(Cc2ccc3c(c2)OCO3)CC1,-2.65
17,CSCC[C@H](NC(=O)Nc1cccc(C(F)(F)F)c1)C(=O)O,9.72
18,Cc1ccc(SC[C@H](C)CN2CC[C@H](C)CCC2=O)cc1,11.3
19,COc1ccc(S(=O)(=O)Nc2c(NC3CCCCC3)c3ccccc3oc2=O)cc1Cl,13.8
20,CC1(C)CC(=O)C(CC2CCCCC2=O)C(=O)C1 (stereo not drawn),12.2
21,CC(C)NC(=O)CC1C(=O)N(Cc2ccccc2)C(C)c2nc3ccccc3n21 (stereo not drawn),7.98
22,Cc1ccc(-n2nnnc2SCC(=O)NNC(=O)c2ccco2)c(C)c1,7.1
